Laboratory results reported in the supplement of paper PMC4604168 (melanoma cell lines).
Some of the results follow. Single values are uncertain, as repeats are few or missing.

system: IST-MEL1; test: cell count relative to DMSO control; melanoma cells; higher = more viable cells; conditions: library dose: low library concentration; 72 h
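Also: cell number obtained by counting DAPI-stained nuclei in high-throughput microscope images with image analysis software, screen run in 1,536-well plates.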

SMILES	cell count
NC(=O)c1ccc(N(C(N)=O)c2c(F)cccc2F)nc1-c1ccc(F)cc1F + COc1cc(Nc2ncc(F)c(Nc3ccc4c(n3)NC(=O)C(C)(C)O4)n2)cc(OC)c1OC [Tamatinib] (first compound 0.4 µM, partner dose 0.4 µM)	88.6%
CCCCCCCCc1ccc(CCC(N)(CO)CO)cc1 [fingolimod] + CN(C)S(=O)(=O)c1ccc2c(c1)/C(=C/c1cc3c([nH]1)CCCC3)C(=O)N2 [SU6656] (first compound 2 µM, partner dose 0.4 µM)	105%
CCCCCCCCc1ccc(CCC(N)(CO)CO)cc1 [fingolimod] + OCCn1cc(-c2cnc3nnn(Cc4ccc5ncccc5c4)c3n2)cn1 [PF04217903] (first compound 2 µM, partner dose 1 µM)	104%
NC(=O)c1ccc(N(C(N)=O)c2c(F)cccc2F)nc1-c1ccc(F)cc1F + NC(=O)Nc1cc(-c2cccc(F)c2)sc1C(=O)N[C@H]1CCCNC1 [AZD7762] (first compound 0.4 µM, partner dose 0.02 µM)	102%
NC(=O)c1ccc(N(C(N)=O)c2c(F)cccc2F)nc1-c1ccc(F)cc1F + O=C(O)c1ccc(-c2c[nH]c3ncc(-c4ccccc4)cc23)cc1C1CCCC1 [GSK650394] (first compound 0.4 µM, partner dose 0.16 µM)	97.6%
CCCCCCCCc1ccc(CCC(N)(CO)CO)cc1 [fingolimod] + COc1cc(Nc2ncc(F)c(Nc3ccc4c(n3)NC(=O)C(C)(C)O4)n2)cc(OC)c1OC [Tamatinib] (first compound 2 µM, partner dose 0.4 µM)	96.2%
CC(C)(C)c1cnc(CSc2cnc(NC(=O)C3CCNCC3)s2)o1 + O=C(Nc1cccc(Cl)c1)Nc1ncc(CCNc2ncnc3ccsc23)s1 [SNS314] (first compound 0.01 µM, partner dose 0.0008 µM)	101%
Cc1ccc(NC(=O)c2cccc(N(C)C)c2)cc1NC(=O)c1ccc(O)cc1 + COc1cc2c(Oc3ccc4[nH]c(C)cc4c3F)ncnc2cc1OCCCN1CCCC1 [cediranib] (first compound 2 µM, partner dose 0.4 µM)	102%
NC(=O)c1ccc(N(C(N)=O)c2c(F)cccc2F)nc1-c1ccc(F)cc1F + C[C@@H]1CCN(C(=O)CC#N)C[C@@H]1N(C)c1ncnc2[nH]ccc12 [CP690550] (first compound 0.4 µM, partner dose 1 µM)	97.1%
NC(=O)c1ccc(N(C(N)=O)c2c(F)cccc2F)nc1-c1ccc(F)cc1F + CC(C)(C)c1cnc(CSc2cnc(NC(=O)C3CCNCC3)s2)o1 [SNS-032] (first compound 0.4 µM, partner dose 0.01 µM)	105%
CCCCCCCCc1ccc(CCC(N)(CO)CO)cc1 [fingolimod] + CC1(C)NC(=O)N(c2ccc([N+](=O)[O-])c(C(F)(F)F)c2)C1=O [nilutamide] (first compound 2 µM, partner dose 1 µM)	107%
Cc1ccc(NC(=O)c2cccc(N(C)C)c2)cc1NC(=O)c1ccc(O)cc1 + CO[C@@H]1[C@H](N(C)C(=O)c2ccccc2)C[C@H]2O[C@]1(C)n1c3ccccc3c3c4c(c5c6ccccc6n2c5c31)C(=O)NC4 [Midostaurin] (first compound 2 µM, partner dose 0.08 µM)	91.9%
CCCCCCCCc1ccc(CCC(N)(CO)CO)cc1 [fingolimod] + Cc1cc(N2CCOCC2)cc2[nH]c(-c3c(NC[C@@H](O)c4cccc(Cl)c4)cc[nH]c3=O)nc12 [BMS536924] (first compound 2 µM, partner dose 0.2 µM)	97.1%
CCCCCCCCc1ccc(CCC(N)(CO)CO)cc1 [fingolimod] + O=C(O)c1ccc(-c2c[nH]c3ncc(-c4ccccc4)cc23)cc1C1CCCC1 [GSK650394] (first compound 2 µM, partner dose 0.16 µM)	80.1%
Cc1ccc(NC(=O)c2cccc(N(C)C)c2)cc1NC(=O)c1ccc(O)cc1 + OCCn1cc(-c2cnc3nnn(Cc4ccc5ncccc5c4)c3n2)cn1 [PF04217903] (first compound 2 µM, partner dose 1 µM)	93.2%
NC(=O)c1ccc(N(C(N)=O)c2c(F)cccc2F)nc1-c1ccc(F)cc1F + C=CCn1c(=O)c2cnc(Nc3ccc(N4CCN(C)CC4)cc3)nc2n1-c1cccc(C(C)(C)O)n1 [MK1775] (first compound 0.4 µM, partner dose 0.02 µM)	99.6%
